The whole screen tested about 48,000 compounds, of which about 550 (1.1%) were called active. Inconclusive results (about 4%) are left out. Rule as the data show it: active = potency below about 15 µM; inconclusive = mostly about 16 µM to 33 µM; inactive = weaker than that. The list shows a part of the results.
These compounds were tested against Lysosomal acid glucosylceramidase (Homo sapiens) (UniProt P04062) (assay: Glucocerebrosidase). Conditions: purified enzyme, resorufin glucoside fluorescence (screen aimed at inhibitors), 20 min; series mostly up to 77 µM.
Chain of UniProt P04062 (P04062 whole entry, looked up): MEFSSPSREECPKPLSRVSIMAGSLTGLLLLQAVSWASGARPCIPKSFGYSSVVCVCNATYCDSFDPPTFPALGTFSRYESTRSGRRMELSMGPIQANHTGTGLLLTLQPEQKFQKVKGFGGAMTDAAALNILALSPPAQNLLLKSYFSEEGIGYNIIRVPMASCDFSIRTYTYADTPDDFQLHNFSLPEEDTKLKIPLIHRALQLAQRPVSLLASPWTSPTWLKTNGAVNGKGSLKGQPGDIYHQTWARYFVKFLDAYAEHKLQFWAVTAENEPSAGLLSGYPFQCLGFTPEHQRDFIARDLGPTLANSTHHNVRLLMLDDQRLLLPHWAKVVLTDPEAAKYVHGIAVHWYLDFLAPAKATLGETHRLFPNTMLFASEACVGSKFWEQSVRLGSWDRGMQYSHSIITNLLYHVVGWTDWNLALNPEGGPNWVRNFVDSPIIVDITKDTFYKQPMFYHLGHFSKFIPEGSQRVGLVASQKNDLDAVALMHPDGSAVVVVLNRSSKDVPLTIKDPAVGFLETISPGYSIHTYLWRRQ
Outline: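 Normal human glucocerebrosidase (0.2 nM final) was assayed with resorufin β-D-glucopyranoside (30 uM final) in 50mM citric acid/KH2PO4, 10mM sodium taurocholate, 0.01% tween-20, pH 5.9. Compounds were titrated; fluorescence (Ex 548, Em 600) read after 20 min at RT.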
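Also: the screen sought inhibitors.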
Potency is read from the fitted curve at half-maximal effect.

Potency, inactive:
O=C(Cn1c(CO)nc2ccccc21)Nc1cc(C(F)(F)F)ccc1N1CCOCC1 > 76.9 µM
Cc1ccc(-n2ncc3c(=O)n(Cc4ccccn4)cnc32)cc1C > 76.9 µM
Cc1ccc2cccc(OC(=O)c3ccc4c(c3)OCCO4)c2n1 > 76.9 µM
CN(C)c1ccc(C(c2nnnn2C2CCCCC2)N2CCN(C(=O)c3ccco3)CC2)cc1 (centres undefined) > 76.9 µM
COc1ccc(CCNC(=O)COC(=O)c2cnccn2)cc1 > 76.9 µM
CCN(CC)c1cc(Oc2ccccc2)ncn1 > 76.9 µM
CC(C)CC(NC(=O)C1CCCCC1)C(=O)NCc1ccccn1 (centres undefined) > 76.9 µM
CC1S/C(=C(\C#N)C(N)=O)N(c2ccc(F)cc2)C1=O (centres undefined) > 76.9 µM
c1ccc(C2(c3ccccc3)OCC(Cn3cncn3)O2)cc1 (centres undefined) > 76.9 µM
O=c1[nH]c(CN2CCN(Cc3ccc4c(c3)OCO4)CC2)nc2sc3c(c12)CCC3 > 76.9 µM
Cn1c(=O)c2c(-c3ccccc3)n(-n3cnnc3)cc2n(C)c1=O > 76.9 µM
CCC(=O)Nc1c(C(=O)N2CCCCCC2)cnn1-c1ccc(C)c(C)c1 > 76.9 µM
O=S(=O)(c1ccc(SCCO)nc1)N1CCCC1 > 76.9 µM
Cn1c(=O)oc2cc(S(=O)(=O)NCCN3CCCCCC3)ccc21 > 76.9 µM
O=C(Nc1ccccc1)c1ccc(S(=O)(=O)N2CCCC2)cc1 > 76.9 µM
O=C(NCCc1ccccc1)c1noc2c1CCCCC2 > 76.9 µM
C=CCn1c(=O)/c(=C/c2ccc(C)o2)s/c1=C(/C#N)C(=O)c1ccccc1 > 15.4 µM
CCOC(=O)/C=C1\NC(=O)CS1 > 76.9 µM
Cc1nc(N)[nH]c(=O)c1CCC(=O)OCC(C)C > 76.9 µM
COc1ccc(C(=O)Cn2nnc(-c3cccs3)n2)cc1 > 76.9 µM
Cc1cc(C(=O)Nc2cc(C)n(Cc3ccc(Cl)cc3)n2)no1 > 76.9 µM
O=C(CN1C(=O)c2ccccc2C1=O)N1CCN(c2ccccn2)CC1 > 76.9 µM
COCCn1c(C23CC4CC(CC(C4)C2)C3)n[nH]c1=S > 76.9 µM
c1ccc(Nc2nc(-c3cccs3)cs2)nc1 > 76.9 µM
CC(=O)N(c1ccc2oc(=O)sc2c1)S(=O)(=O)c1ccccc1 > 76.9 µM
CCS(=O)(=O)c1ccc2oc(Nc3ccccc3C)nc2c1 > 76.9 µM
Cn1cccc1P(=O)(c1cccn1C)c1cccn1C > 76.9 µM
Cc1ccc2c(c1)C(C)(C)[C@]1(C)NC(=O)CCN21 > 76.9 µM
Cc1nc2ncnn2c(C)c1CCC(=O)NC(C)CCc1ccco1 (centres undefined) > 76.9 µM
Cc1ccc(OCC(=O)N2CCN(C(=O)c3cccs3)CC2)cc1 > 76.9 µM
CCCn1c(SCC(=O)Nc2ccccc2N2CCCCC2)nc2c1c(=O)n(C)c(=O)n2C > 76.9 µM
c1ccc2c(c1)C(=NCC1CCCO1)NC2=NCC1CCCO1 (centres undefined) > 76.9 µM
CCN(CC)C(=O)N1c2ccccc2CC(N(CC)CC)c2ccccc21 (centres undefined) > 76.9 µM
COc1ccc(Cc2nc(-c3ccc(NC(=O)c4cccnc4)cc3)no2)cc1 > 76.9 µM
O=C(C1CCN(S(=O)(=O)c2cccc3cccnc23)CC1)N1CCc2ccccc21 > 76.9 µM
O=C(NCc1cccs1)c1cccc(N2CCCC2=O)c1 > 76.9 µM
Cc1ccc(-n2c(Cc3cccn3C)nnc2SCC(N)=O)cc1 > 76.9 µM
O=C(CCCSc1nnc(-c2cccs2)n1CC1CCCO1)c1ccccc1 (centres undefined) > 76.9 µM
Cc1ccc(-n2nc(C(=O)NCc3ccco3)c3c4ccccc4n(C)c3c2=O)cc1 > 76.9 µM
CC(O)c1cc2c(cc1NC(=O)c1cnn3c1NC(c1ccco1)CC3C(F)(F)F)OCO2 (centres undefined) > 76.9 µM
CC1=C(C(=O)OC(C)C)C(c2cccs2)N2C(=O)CCSC2=N1 (centres undefined) > 76.9 µM
OCCN1CCOCCN(CCO)CCN(CCO)CC1 > 76.9 µM
COc1cccc(-c2nnc(SCC(=O)Nc3cc(C)on3)o2)c1 > 76.9 µM
CC(C)(C)OC(=O)N1Cc2ccccc2C[C@H]1C(=O)O > 76.9 µM
CCc1ccccc1NC1=NCC(=O)N1Cc1ccc2c(c1)OCO2 > 76.9 µM
O=C(Nc1ccccc1C(=O)NCc1ccco1)NC1CCCCC1 > 76.9 µM
O=C(c1cc2nc(-c3ccco3)cc(C(F)(F)F)n2n1)N1CCCc2ccccc21 > 76.9 µM
COc1cc(Cl)c(C)cc1NC(=O)CSc1nnc(-c2ccccn2)n1Cc1ccco1 > 76.9 µM
CCc1nc2c3cnn(-c4cc(Cl)ccc4C)c3ncn2n1 > 76.9 µM
Cc1ccc(NC(=O)c2ccc3c(c2)N(CC(=O)N2CCCCC2)C(=O)C(C)(C)O3)cc1 > 76.9 µM
CCN(Cc1ccccc1)C(=O)Cn1c(=O)n(CC(=O)NCc2ccco2)c(=O)c2sccc21 > 76.9 µM
CCN(Cc1nc2ccccc2c(=O)[nH]1)Cc1cc(=O)oc2cc(C)c(C)cc12 > 76.9 µM
CCOc1ccc(NC(N)=O)cc1 > 76.9 µM
CC(C)C(OC(=O)CN1C(=O)COc2ccccc21)C(=O)NC1CCCC1 (centres undefined) > 76.9 µM
COc1ccccc1-n1nc(C(=O)Nc2ccc3c(c2)OCO3)c2ccccc2c1=O > 76.9 µM
COC(=O)Nc1ccc2c(c1)N(C(=O)CCN1CCN3CCCC3C1)c1ccccc1CC2 (centres undefined) > 76.9 µM
CC(=O)N1CCc2cc(S(=O)(=O)NCCCN3CCN(Cc4ccccc4)CC3)ccc21 > 76.9 µM
Cc1noc(/C=C/c2ccco2)c1S(=O)(=O)N1CCC(C(=O)NCc2ccco2)CC1 > 76.9 µM
CCOC(=O)CSC1=C(C#N)C(C)C2=C(CCCC2=O)N1 (centres undefined) > 76.9 µM
COC(=O)c1ccc(CSCC(=O)Nc2cc(OC)cc(OC)c2)o1 > 76.9 µM
Cc1nnc2n(c1=O)C(CS(=O)(=O)c1ccccc1)CS2 (centres undefined) > 76.9 µM
CCOc1ccc(-c2nc(=S)[nH][nH]2)cc1 > 76.9 µM
COc1ccc(OC)c(NC(=O)NCc2ccc(F)cc2)c1 > 76.9 µM
CCOc1cc(C(=O)OCC(=O)c2c(C)[nH]c3ccccc23)ccc1OCC(=O)N1CCOCC1 > 76.9 µM
COC(=O)CC[C@@H](C(=O)O)N1C(=O)c2ccccc2C1=O > 76.9 µM
O=C(O)CSc1c2c(nc3cc(C(=O)N4CCOCC4)ccc13)CCCC2 > 76.9 µM
CCC(C)NC(=O)CSc1nnc(-c2ccncc2)n1-c1ccc(OC)cc1 (centres undefined) > 76.9 µM
CCCCS(=O)(=O)NC1=NCN(CCO)CN1 > 76.9 µM
CN(C1CCCCC1)S(=O)(=O)c1ccc(NC(=O)CCC(=O)O)cc1 > 76.9 µM
Cc1cc(C)nc(NS(=O)(=O)c2ccc(Br)cc2)n1 > 76.9 µM
CCCS(=O)(=O)N1CCC(C(=O)N2CCc3ccccc3C2)CC1 > 76.9 µM
CCOc1ccc(C2C(C(=O)O)c3ccccc3C(=O)N2CCN2CCOCC2)cc1 (centres undefined) > 76.9 µM
COC(=O)C1=C(C)NC(=O)CC1c1ccc(F)c(Br)c1 (centres undefined) > 76.9 µM
CC(C(=O)Nc1ccccc1-c1ccccc1)N1CCN(C(=O)c2ccco2)CC1 (centres undefined) > 76.9 µM
COc1cc(S(=O)(=O)N2CCC(O)(c3cccc(C(F)(F)F)c3)CC2)ccc1-n1cnnn1 > 76.9 µM
CCS(=O)(=O)N1CCC(C(=O)NCCc2ccc(OC)c(OC)c2)CC1 > 76.9 µM
O=C(CN(C(=O)Cn1nnc(-c2cccs2)n1)c1cnc2ccccc2c1)NCC1CCCO1 (centres undefined) > 76.9 µM
CC(C)(O)c1nnn(-c2ccccc2)c1C(F)(F)F > 76.9 µM
O=C(COc1cccc(-n2cnnn2)c1)N1CCOCC1 > 76.9 µM
O=c1oc2cc(Br)ccc2n1CSC1=NCCS1 > 76.9 µM
CCOC(=O)c1ccc(CNC(=O)c2n[nH]c(=O)c3ccccc23)o1 > 76.9 µM
COc1ccc(N(CC(=O)Nc2cccc(N(C)S(C)(=O)=O)c2)S(C)(=O)=O)cc1OC > 76.9 µM
COC(=O)[C@H](Cc1ccccc1)NC(=O)NCCc1ccc(S(N)(=O)=O)cc1 > 76.9 µM
Cc1cccc(OCc2nnc(SCC(=O)c3ccccc3)o2)c1 > 76.9 µM
CS(=O)(=O)N(C(=O)NC(=O)NC1CCS(=O)(=O)C1)C1CCCCC1 (centres undefined) > 76.9 µM
CC(C)(C)C1CCc2onc(C(=O)Nc3cccnc3)c2C1 (centres undefined) > 76.9 µM
COCCCN=CC1=C(O)CC(C)(C)CC1=O > 76.9 µM
Cc1cc2n(n1)C(c1ccccc1Cl)Nc1ccccc1-2 (centres undefined) > 76.9 µM
O=C(CN1C(=O)C2C3C=CC(C3)C2C1=O)NC1CCCc2ccccc21 (centres undefined) > 76.9 µM
